# According to the RNAGym collection of RNA variant scans (doi:10.1093/nar/gkz1192):
# Read counts are not given, so values of variants with three or more changes are uncertain.
# B1: CPEB3 Ribozyme (parent)
# chain: UAACAGGGGGCCACAGCAGAAGCGUUCACGUCGCAGCCCCUGUCAGAUUCUGGUGAAUCUGCGAAUUCUGCUGUAUAUCUC
# Variants of: B1
# Test: self-cleavage, relative activity (ratio to wild type); higher = more cleavage; in vitro, sequencing
# Method in brief: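 For each CPEB3 ribozyme variant, relative activity is its cleaved/total read fraction divided by the unmutated ribozyme's. Barcoded error-prone PCR libraries were transcribed by T7 RNA polymerase (5 hours, 37°C) and held in DNase I for 15 min before an EDTA stop, with cleavage occurring throughout. Template-switching reverse transcription and Illumina sequencing were used to read the RNAs. A 5-read minimum applied, and results are the mean of three batches.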
row,Variant,self-cleavage
1,CAACAGGGAGCCCCAGCAGAAGCGUUCACGCCGCAGCCCCUGUCAGAUUCUGGUGAAUCUGCGAACUCUGCUGUAUAUCUC [U1C G9A A13C U31C U66C],0.46
2,CAACAGGGAGCCGCUGCAGAAGCGUUCACGUCGCAGCCCCUGUCAGAUUCUGGUGAAUCUGCGAAUUCUGCUGUAUAUCCC [U1C G9A A13G A15U U80C],0.43
3,CAACAGGGAGCCACAGCAGAAGCGUUCACGUCGCAGCCCCUGUCAGAUUCUGGUGAGCCUGCGAAUUCUACUGUAUAUCUC [U1C G9A A57G U58C G70A],0.2
4,CAACAGGGAGCCACAGCAGAAGCGUUCACGUCGCAGCCCCUGUCAGAUUCUGGUGAGUCUGCGAAUUCUGCUGUAAAUCUC [U1C G9A A57G U76A],0.11
5,CAACAGGGAGCCACAGCAGAAGCGUUCACGUCGCAGCCCCUGUCAGAUUUUGGCGAAUCUGCGAACUCUGUUGUAUAUCUC [U1C G9A C50U U54C U66C C71U],0.08
6,CAACAGGGACCCACAGCAGAAGCGUUCACUUCGCAGCCCCUGUCAGAUUCUGGUGAAUCCGCGAAUUCUGCUGAAUACCUC [U1C G9A G10C G30U U60C U74A U78C],0.04
7,CAACAGGGAGCCACAGCAGAAGCGUCCACGUCGCAGCCCCUGUCAGAUUCUGGCGAAUCAGCGAAUUCUGCUGUAUAUCUC [U1C G9A U26C U54C U60A],0.05
8,CAACAGGGAGCCACAGCAGAAGCGUUCACGCCGCAGCCCCUGUCAGUUUCCGGCGAAUCUGCGAAUUCUGCUGUAUAUCUC [U1C G9A U31C A47U U51C U54C],0.05
9,CAACAGGGAGCCACAGCAGAAGCGUUCACGUCGCAGCCCCUGUCAGAUUCUGGAGAAUCUGCGAAGUCCGCCGUAUAUCUC [U1C G9A U54A U66G U69C U72C],0.04
10,CAACAGGGUGCCACAGCAGAAGCGUUCACGUCGCAGCCCCUGUCAGAUUCUGGUGAAUCUGCGAGUUCUGCUGUAUAUCUC [U1C G9U A65G],0.12
11,CAACAGGGGACCACAGCCGAAGCGUUCACGUCGCAGCCCCUGUCCGAUCCUGGUGAAUCUGCGAAUACUGCUGUAUAUCUC [U1C G10A A18C A45C U49C U67A],0.05
12,CAACAGGGGACCACAGCAGUAGCGUUCGCGUCGCAGCCCCUGUCAGAUUCUGGUGAAUCUGCGAGUUCUGCUGUAUAUCUC [U1C G10A A20U A28G A65G],0.04
13,CAACAGGGGACCACAGCAGAUGCGCUCACGCCGCGGCCCCUGUCAGAUUCUGGUGAAUCUGCGAAUUCUGCUGUAUAUCUC [U1C G10A A21U U25C U31C A35G],0.23
14,CAACAGGGGACCACAGCAGAAGCGUUCGCGUCGCAGCCCCUGUCAGAUUCUGGUGAAUCCGCGAAUUCUGCUGUAUAUCUC [U1C G10A A28G U60C],0.06
15,CAACAGGGGACCACAGCAGAAGCGUUCACGUCGCGGCCCCUGUCAGAUUCUGGUGAAUCUGCGAAUUCUGCUGUAUAUCUC [U1C G10A A35G],0.51
16,CAACAGGGGCCCACAGCAGAAGCGCUCACGUUGCAGCCCCCGUCAGAUUCUGGUGAAUCUGUGAAUUCUGCUGUAUAUCUC [U1C G10C U25C C32U U41C C62U],0.04
17,CAACAGGGGUCCACAGCAGAAGCGCUCACGUCGCAGCCCCCGUCAGAUUCUGGUGAAUCUGCGAAUUCAGCUGUAUAUCUC [U1C G10U U25C U41C U69A],0.05

row,Variant,self-cleavage
1,CAACAGGGGGCCACAGCAUGUGCGUUCACGUCGCAGCCCCUGUCAGAUUCUGGUGAAUCAGCGAAUUCUGCUGUAUAUCUC [U1C G19U A20G A21U U60A],0.17
2,CAACAGGGGGCCACAGCAGAAUCGUUCACGUCGCAGCCCCUGUCUGAUUCUGGCGAAUCUGCGAAUACUGCUGUAUAUCUC [U1C G22U A45U U54C U67A],0.06
3,CAACAGGGGGCCACAGCAGAAGCAUUCACGUCGCAGCCCCUGUCAGAUUCUGGUGAAUCAGCGAAUUCUGCUGUAUAUCUC [U1C G24A U60A],0.08
4,CAACAGGGGGCCACAGCAGAAGCGUUCACAUCGCAGCCCCUGUCAGAUCCUGGUGAAUCUGCGAAUUCUGCUGUAUAUCUC [U1C G30A U49C],0.22
5,CAACAGGGGGCCACAGCAGAAGCGUUCACAUCGCAGCCCCUGUCAGAUUCAGGUGAAUCUGAGAAUUCUGCUGUAUAUCUC [U1C G30A U51A C62A],0.07
6,CAACAGGGGGCCACAGCAGAAGCGUUCACUUCGCAGCCCCUGUCAGAUUCUGGUGAAUCUGCGUAUUCUGCAGUAUAUCUC [U1C G30U A64U U72A],0.18
7,CAACAGGGGGCCACAGCAGAAGCGUUCACGUCUCAGCCUCUGUCAGAUUCUGGUGAGUCUGCGAGUUCUGCUGUAUAUCUC [U1C G33U C39U A57G A65G],0.17
8,CAACAGGGGGCCACAGCAGAAGCGUUCACGUCUCAGCCUCUGUCAGAUUCUGGUGAGUCUGCGAAUACUGCUGUACAUCUC [U1C G33U C39U A57G U67A U76C],0.04
9,CAACAGGGGGCCACAGCAGAAGCGUUCACGUCGCAGCCCCUGUCAGAUUCUUGUGAAUCUGCGAAUUCUGCUGUAUAUCCC [U1C G52U U80C],1.14
10,CAACAGGGGGCCACAGCAGAAGCGUUCACGUCGCAGCCCCUGUCAGAUUCUGGUGAAUCUGCAAAUUCUGCCGUAUAUCUC [U1C G63A U72C],0.94
11,CAACAGGGGGCCACAGCAGAAGCGUUCACGUCGCAGCCCCUGUCAGAUUCUGGUGAAUCUGCGAAUUCUGCUAUAUAUCCC [U1C G73A U80C],1.27
12,CAACAGGGGGCCACAGCAGAAGCGACCACGUCGCAGCCCCUGUCAGAUUCUGGUGAAUCUGCGAAAUCCGCUGUAUAUCUC [U1C U25A U26C U66A U69C],0.05
13,CAACAGGGGGCCACAGCAGAAGCGAUCACGGCGCAGCCCCUGUCAGAUUCUGGUGGAUCUGCGAAUUCUGCUGUAUAUCUC [U1C U25A U31G A56G],0.38
14,CAACAGGGGGCCACAGCAGAAGCGCUCUCGUCGCAGCCCCUGUCAGAUUCUGGUGAAUCUGCGAAUUCUGCUGUAUAUCUC [U1C U25C A28U],0.27
15,CAACAGGGGGCCACAGCAGAAGCGCUCACGUCGCGGCCCAUGUCAGAUUCUGGUGGAUCUGCGAAUUCUGCUGUAUAUCUC [U1C U25C A35G C40A A56G],0.49
16,CAACAGGGGGCCACAGCAGAAGCGCUCACGUCGCUGCCCCUGUCAGAUUCUGGUGAAUCUGCGAAUUCUGCUGUAUAUCUC [U1C U25C A35U],0.4
17,CAACAGGGGGCCACAGCAGAAGCGCUCACGUCGCAGCCCCUGUCAGAUUCUGUUGAAUCUGCGAAUUCUGCUGCAUAUCCC [U1C U25C G53U U74C U80C],0.36
